Results taken from article PMC4336329 (PLoS ONE, 2015).
Among all 310,000 compounds or so, about 2,200 (0.71%) showed an effect of 50% or more. The effect is printed as a negative number. This is one part of the list.

The compounds below were run against human ether-à-go-go-related gene (hERG) potassium channel (human, UniProt Q12809) (assay: primary screen, population patch clamp on CHO cells stably expressing hERG).
Chain of human ether-à-go-go-related gene (hERG) potassium channel (Q12809 whole entry, looked up): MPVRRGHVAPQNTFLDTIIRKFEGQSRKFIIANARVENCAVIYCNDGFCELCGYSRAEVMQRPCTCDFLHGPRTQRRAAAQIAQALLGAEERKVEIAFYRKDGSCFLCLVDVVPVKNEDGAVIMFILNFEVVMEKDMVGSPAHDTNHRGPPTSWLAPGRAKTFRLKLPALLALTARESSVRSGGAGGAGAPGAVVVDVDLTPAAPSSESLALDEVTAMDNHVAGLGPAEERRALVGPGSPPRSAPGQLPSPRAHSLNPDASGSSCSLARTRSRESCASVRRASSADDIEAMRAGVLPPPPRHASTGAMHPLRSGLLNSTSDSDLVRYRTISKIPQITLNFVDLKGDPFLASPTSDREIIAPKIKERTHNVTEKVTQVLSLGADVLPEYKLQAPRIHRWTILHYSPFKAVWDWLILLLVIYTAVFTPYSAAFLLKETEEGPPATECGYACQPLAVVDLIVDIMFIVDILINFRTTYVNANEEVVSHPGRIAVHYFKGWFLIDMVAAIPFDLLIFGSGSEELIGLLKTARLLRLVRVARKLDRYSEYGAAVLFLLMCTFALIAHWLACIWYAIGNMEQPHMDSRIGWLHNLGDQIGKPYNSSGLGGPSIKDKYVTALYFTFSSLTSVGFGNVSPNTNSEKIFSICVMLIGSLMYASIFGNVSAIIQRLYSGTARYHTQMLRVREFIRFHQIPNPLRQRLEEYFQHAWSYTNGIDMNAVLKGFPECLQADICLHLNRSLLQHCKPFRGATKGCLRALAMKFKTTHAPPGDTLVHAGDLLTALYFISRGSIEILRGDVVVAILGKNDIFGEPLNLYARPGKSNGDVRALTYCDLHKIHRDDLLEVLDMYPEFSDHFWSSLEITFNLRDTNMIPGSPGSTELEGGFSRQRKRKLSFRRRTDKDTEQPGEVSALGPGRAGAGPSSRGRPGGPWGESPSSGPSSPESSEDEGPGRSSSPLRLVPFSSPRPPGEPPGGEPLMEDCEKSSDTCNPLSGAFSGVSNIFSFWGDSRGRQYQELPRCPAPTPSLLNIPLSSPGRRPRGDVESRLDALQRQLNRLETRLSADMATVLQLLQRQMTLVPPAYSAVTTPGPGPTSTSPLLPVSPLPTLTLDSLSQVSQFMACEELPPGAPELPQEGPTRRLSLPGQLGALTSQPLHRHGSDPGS

Going from `Cc1ccn(CC(=O)N/N=C/c2cc([N+](=O)[O-])ccc2O)n1` to `O=[N+]([O-])c1ccc(OCn2cncn2)cc1`, the “hERG current change (%, negative = inhibition) at 1uM” value falls from 7.21% to -3.03%.

Going from `Cc1ccc(/C=C/C(=O)Nc2nccs2)o1` to `Cc1csc(NC(=O)CSc2nccn2Cc2ccco2)n1`, the “hERG current change (%, negative = inhibition) at 1uM” value rises from 3.62% to 10.6%.

Going from `Cc1ccc2nccc(C(=O)N3CCCC(N4CCN(c5ccc(F)cc5)CC4)C3)c2c1` (centres unmarked) to `O=C(Cn1c(=O)c2cccn2c2ccc(F)cc21)N1CCN(c2ccc(F)cc2)CC1`, the “hERG current change (%, negative = inhibition) at 1uM” value rises from -5.78% to 16.6%.

Going from `Fc1ccccc1Cn1nnc(-c2ccc3c(c2)OCO3)n1` to `O=C(CCCCCn1nnc2ccccc2c1=O)Nc1ccccc1F`, the “hERG current change (%, negative = inhibition) at 1uM” value rises from 8.58% to 14.2%.

First: CC(C)c1ccc2oc(-c3ccc(N)cc3)nc2c1
Second: CNC(C)C#Cc1ccc2c(=O)c3ccccc3oc2c1 (centres unmarked)
The “hERG current change (%, negative = inhibition) at 1uM” value of the first is lower: 8.3% for the first, 9.85% for the second.

Going from `Cn1c(=O)c(=O)n(C)c2cc(S(=O)(=O)N3CCOCC3)ccc21` to `COC(=O)c1cc(S(=O)(=O)N2CCN(c3ccccc3OC)CC2)cn1C`, the “hERG current change (%, negative = inhibition) at 1uM” value rises from -0.569% to 21.8%.

First: CC(=O)NC(c1cc(Cl)c2cccnc2c1O)C(C)C (centres unmarked)
Second: Cc1cc(O)c(C(=O)c2ccccc2C(=O)O)cc1C
The “hERG current change (%, negative = inhibition) at 1uM” value of the first is higher: 6.11% for the first, 0.388% for the second.

First: COc1ccc([C@H]2Oc3cc(O)cc(O)c3C(=O)C2[C@@H]2C(=O)c3c(O)cc(O)cc3O[C@@H]2c2ccc(OC)cc2)cc1 (some centres unmarked)
Second: CCN(CC)C(=O)COc1ccc2c(-c3ccc(OC)cc3)cc(=O)oc2c1
The “hERG current change (%, negative = inhibition) at 1uM” value of the first is lower: 10.6% for the first, 11.9% for the second.

Going from `Cc1cccc(Cn2c(C(=O)OC(C)C)cc3c2ccn3C)c1` to `COCCn1c(SCc2cccc(F)c2)nc2cc(C(=O)OC)ccc2c1=O`, the “hERG current change (%, negative = inhibition) at 1uM” value rises from 8.55% to 12%.

Compared with `Cc1ccc(C)c(Cn2c3ccccc3c3cnn(CC(=O)NCCCN4CCOCC4)c(=O)c32)c1`, `O=C(NCCCN1CCOCC1)c1ccc2c(c1)N(Cc1c(F)cccc1Cl)C(=O)c1ccccc1S2` is higher in “hERG current change (%, negative = inhibition) at 1uM” value: 5.8% for the first, 15.3% for the second.

First: CN1CCN(C(=S)c2ccc(Cl)cc2)CC1
Second: O=C(c1ccc(Cl)cc1)N1CCC(C(=O)N2CCN(c3ncccn3)CC2)CC1
The “hERG current change (%, negative = inhibition) at 1uM” value of the first is higher: 10.7% for the first, -13.6% for the second.

First: NNC(=O)c1ccc2[nH]c3c(c2c1)CCCC3
Second: CN(C)S(=O)(=O)c1ccc(C(=O)NCc2ccc3[nH]c4c(c3c2)CCCC4)cc1
The “hERG current change (%, negative = inhibition) at 1uM” value of the first is higher: 10.1% for the first, 9.94% for the second.

Compared with `O=C(NCc1ccco1)Nc1ccc2snnc2c1`, `CCn1c(SCC(=O)NCc2ccco2)nc2ccccc2c1=O` is lower in “hERG current change (%, negative = inhibition) at 1uM” value: 4.77% for the first, -0.68% for the second.

Compared with `Cc1c(C(=O)c2ccc([N+](=O)[O-])cc2)c(=O)n(C)c(=O)n1C`, `Cn1c(=O)n(C)c2cc(NC(=O)c3ccccc3[N+](=O)[O-])c(Br)cc21` is higher in “hERG current change (%, negative = inhibition) at 1uM” value: 1.89% for the first, 7.77% for the second.

Going from `O=C(NCc1cccnc1)c1ccc(Br)o1` to `Cc1ccc(S(=O)(=O)N(CC(=O)NCc2cccnc2)c2ccc(F)cc2)cc1`, the “hERG current change (%, negative = inhibition) at 1uM” value falls from 18.3% to -38.1%.

Going from `Cc1nc(C)c(-c2ccc(SCC(=O)Nc3ccc(F)cc3F)nn2)s1` to `Cc1cc(C)n2c(SCCN3C(=O)c4ccccc4C3=O)nnc2n1`, the “hERG current change (%, negative = inhibition) at 1uM” value falls from 9.24% to 5.18%.

First: O=C(NCCNc1ccc2ccccc2c1)c1cccn2c(=O)c3sccc3nc12
Second: Cc1cccc2cc(CN(Cc3ccccc3)C(=O)c3cccc(F)c3)c(Cl)nc12
The “hERG current change (%, negative = inhibition) at 1uM” value of the first is lower: 1.09% for the first, 10.2% for the second.

Compared with `O=C(CCSc1ccc(Cl)cc1)N1CCOCC1`, `COc1cccc2cc(C(C)N(CCCN3CCOCC3)C(=O)Nc3ccc(Cl)cc3)oc12` (centres unmarked) is lower in “hERG current change (%, negative = inhibition) at 1uM” value: 11.3% for the first, 2.5% for the second.

Compared with `COc1ccc(N2CCN(C(=O)c3oc4ccccc4c3NC(=O)CCc3cc(OC)no3)CC2)cc1`, `CC(=O)N1CCN(c2ccc(NC(=S)NC(=O)COc3ccc(C(C)(C)C)cc3)cc2)CC1` is higher in “hERG current change (%, negative = inhibition) at 1uM” value: 3.95% for the first, 14% for the second.

First: Cc1ccc2c(c1)C1CN(C)CCC1N2C(=O)c1ccccc1NS(=O)(=O)c1cccc(C(F)(F)F)c1.Cl (centres unmarked)
Second: CC(C)(CN1CCC(Cc2ccccc2)CC1)NS(=O)(=O)c1ccccc1.O=C(O)C(=O)O
The “hERG current change (%, negative = inhibition) at 1uM” value of the first is higher: 4.6% for the first, 0.0371% for the second.

Compared with `O=C(NNC1OC(CO)C(O)C(O)C1O)c1cccc(Br)c1` (centres unmarked), `Cc1onc(NC(=O)NC(=O)c2c(Cl)cccc2Cl)c1Br` is lower in “hERG current change (%, negative = inhibition) at 1uM” value: 13% for the first, 1.14% for the second.

Going from `CC1CCN(c2c(NCc3ccc(C(=O)NCCc4ccc(Cl)cc4)cc3)c(=O)c2=O)CC1` to `COc1ccc(Cn2c(=O)[nH]c3cc(C(=O)NCCCN4CCCC4)ccc3c2=O)cc1`, the “hERG current change (%, negative = inhibition) at 1uM” value rises from 2.07% to 10.3%.

Going from `Cc1nc2ncnn2c(C)c1CCC(=O)N1CCC2(CC1)OCCO2` to `Cc1c(Br)c([N+](=O)[O-])nn1CCCC(=O)N1CCN(c2ccccc2)CC1`, the “hERG current change (%, negative = inhibition) at 1uM” value falls from 8.92% to -19.4%.

Going from `O=C1CN2NC(=S)N(c3ccc(Cl)cc3)C2=CN1c1ccc(Cl)cc1` to `O=c1[nH][nH]c(-c2ccccc2)c1C=Nc1ccc(Cl)cc1`, the “hERG current change (%, negative = inhibition) at 1uM” value falls from 8.22% to -1.29%.

Compared with `CC(=O)Nc1ccc(S(=O)(=O)NCC(=O)NCCc2ccc(S(N)(=O)=O)cc2)cc1`, `O=C(Cc1ccccc1)NCCS(=O)c1ccc(Cl)cc1` (centres unmarked) is lower in “hERG current change (%, negative = inhibition) at 1uM” value: 6.09% for the first, 5.39% for the second.

Compared with `COC(=O)c1ccccc1NC(=O)CSc1ccccc1`, `CCC(Oc1ccccc1)C(=O)Nc1nnc(S(=O)(=O)Nc2ccccc2)s1` (centres unmarked) is higher in “hERG current change (%, negative = inhibition) at 1uM” value: 4.11% for the first, 13.7% for the second.

Going from `COc1ccccc1NC(=O)COc1ccc(/C=N/n2cnnc2)cc1OC` to `CC(C)(C)OC(=O)n1cc(/C=N/NC(=O)c2ccco2)c2ccccc21`, the “hERG current change (%, negative = inhibition) at 1uM” value rises from 7.74% to 10.5%.

First: Cc1cc(C)cc(NC(=O)CCCn2nc(C)c3c(C)n(-c4ccccc4)nc3c2=O)c1
Second: Cn1c(NC(=O)c2ccccc2Br)cc(=O)n(C)c1=O
The “hERG current change (%, negative = inhibition) at 1uM” value of the first is lower: -2.35% for the first, 6.96% for the second.

Compared with `CCn1c(CCNC(=O)c2cccs2)nnc1SCC(=O)c1ccc(OC)cc1`, `COc1cccc(C(=O)Nc2ccc(C)cc2)c1` is higher in “hERG current change (%, negative = inhibition) at 1uM” value: 1.48% for the first, 11.4% for the second.

Going from `NP(=O)(OCCCCc1ccccc1)Oc1ccccc1Cl` (centres unmarked) to `O=C(Nc1ccc(-c2csc(-c3ccccc3)n2)cc1)c1ccccc1Cl`, the “hERG current change (%, negative = inhibition) at 1uM” value rises from 8.2% to 16.9%.

Going from `Cc1c(C(=O)OCC(=O)NC2CCCCC2)oc2ccccc12` to `COCC(=O)NC1CC2CCCC(C1)N2Cc1ccccc1` (centres unmarked), the “hERG current change (%, negative = inhibition) at 1uM” value falls from 4.34% to -3.16%.

Going from `O=C(/C=C/c1ccc(Cl)cc1)c1cccnc1` to `N/C(=N\OC(=O)Cc1ccccc1[N+](=O)[O-])c1cccnc1`, the “hERG current change (%, negative = inhibition) at 1uM” value rises from -7.66% to 2.4%.

First: Cc1sc(N)nc1-c1cccs1
Second: Cc1cc2nc(N)sc2cc1C
The “hERG current change (%, negative = inhibition) at 1uM” value of the first is higher: 17.7% for the first, 9.7% for the second.

Compared with `CCOC(=O)C1CCN(C(=O)c2ccc(OCC(=O)N3CCOCC3)c(OC)c2)CC1`, `CCOC(=O)c1[nH]ncc1CN1CCCC(C(=O)c2ccc(OC)cc2C)C1` (centres unmarked) is lower in “hERG current change (%, negative = inhibition) at 1uM” value: 8.24% for the first, -16.3% for the second.

Compared with `CCN(CC)C(=S)SCC(=O)Nc1ncc2c(n1)CCCC2=O`, `COc1cc(NC(=O)CCc2nnc3ccc(N4CCCCC4)nn23)cc(OC)c1OC` is higher in “hERG current change (%, negative = inhibition) at 1uM” value: -1.98% for the first, 15.6% for the second.

Compared with `C[C@H]1CN=C(Nc2ccccc2)N1CC1CCCCCC1`, `CC(NC(=O)C(Cc1ccccc1)N1C(=O)C2C3CCC(C3)C2C1=O)c1ccccc1` (centres unmarked) is higher in “hERG current change (%, negative = inhibition) at 1uM” value: -0.572% for the first, 7.26% for the second.

First: OC(CCNCCc1c[nH]c2ccccc12)C(F)(F)Cl (centres unmarked)
Second: CC(=O)N1CCc2[nH]c3ccccc3c2C1
The “hERG current change (%, negative = inhibition) at 1uM” value of the first is higher: 6.3% for the first, 6.02% for the second.

Compared with `CCC(CC)C(=O)c1c[nH]c(C(=O)NCCCn2ccnc2)c1`, `C=CCNC(=O)CC(=O)N/N=C/c1ccccc1F` is higher in “hERG current change (%, negative = inhibition) at 1uM” value: 12.8% for the first, 13% for the second.

Going from `CC1CCC(C(=O)NC(C(=O)N2CCC(N3CCCCC3)CC2)C(C)C)CC1` (centres unmarked) to `CC(C)CNC(=O)C1CCCN(S(=O)(=O)c2ccc(-n3cnnn3)cc2)C1` (centres unmarked), the “hERG current change (%, negative = inhibition) at 1uM” value rises from -4.71% to 10.6%.

Compared with `COc1cc(NC(=O)CN(C)S(=O)(=O)c2cccs2)cc(OC)c1`, `CNC(=O)c1cc2cc(OC)ccc2oc1=O` is lower in “hERG current change (%, negative = inhibition) at 1uM” value: 6.03% for the first, -4.3% for the second.

Going from `O=C(NC1CCCC1)c1ccc(CS(=O)(=O)c2ccc(Cl)cc2)o1` to `COc1ccc(/C=C(/NC(=O)c2ccco2)C(=O)N2CCCC2=O)cc1`, the “hERG current change (%, negative = inhibition) at 1uM” value falls from 13.6% to -0.011%.

Going from `CC(=O)c1ccc(OC2OCCOC2Oc2ccc(C(C)=O)cc2)cc1` (centres unmarked) to `CC(=O)c1nn(-c2ccc(Br)cc2)cc1C(=O)c1ccccc1`, the “hERG current change (%, negative = inhibition) at 1uM” value rises from 4.2% to 18.2%.

First: COc1ccc(OCc2cc(C(=O)N(C)CCC3CCOCC3)no2)c(Cl)c1
Second: COc1cc(CNC(=O)C2CCCC2)cc(OC)c1OC
The “hERG current change (%, negative = inhibition) at 1uM” value of the first is lower: -3.47% for the first, 16.7% for the second.

First: COC(=O)CN(C)C(=O)CC1C(=O)NCCN1CC(C)(C)C (centres unmarked)
Second: Cc1ccnc(SCCn2c(N3CCC(C)CC3)nc3c2c(=O)n(C)c(=O)n3C)n1
The “hERG current change (%, negative = inhibition) at 1uM” value of the first is higher: 6.96% for the first, 6.01% for the second.

For `O=C(COC(=O)Cc1ccccc1F)NCCNC(=O)COC(=O)Cc1ccccc1F`, the “hERG current change (%, negative = inhibition) at 1uM” value was 2.96%.
